# From ChEMBL document CHEMBL5308541, “MAIP: An Open-Source Tool to Enrich High-Throughput Screening Output and Identify Novel, Druglike Molecules with Antimalarial Activity” (ACS Med Chem Lett, 2023)
# Out of some 150,000 compounds screened, about 540 (0.36%) showed an effect of 50% or more. The list shows a part of the results.
# Tested on: Plasmodium falciparum
# Experiment: Primary screen in NF54 nanoGlo assay, in single point, at 2uM, 72h; a lower Z score goes with more inhibition
# Assay type: functional, Erythrocyte
# Settings: timepoint 72 hour
SMILES,% Inhibition [%],Z score
O=S(=O)(N1CCCC1)N1CCOC2(CCN(CCCn3cccn3)CC2)C1,-3,0.39
NC(=O)[C@@H]1CN(C(=O)c2cc(F)c(F)c(F)c2F)CCN1C1CC1,-3,0.48
CN1CCC(c2nc(-c3ccc(Oc4ccccc4C(F)(F)F)nc3)no2)CC1,1,-0.17
CCOc1ccc2nc(NCc3c(C)nn(C)c3Cl)sc2c1,-13,2.24
CNc1cc(N2CCCC2CNC2CCCc3ccc(O)cc32)ncn1 (centres undefined),-4,0.7
OC1(CNc2nccc(N3CCCC3)n2)CCCCCC1,0,0.07
CCN(CC)CCN1CCC(N2CCS(=O)(=O)CC2)CC1,3,-0.62
Cc1cc(C(=O)N2CCN(CCN3CCCOCC3)CC2)nn1-c1ccccc1,-1,0.23
CN(CC1CCN(CCc2ccc(F)cc2)CC1)C1CCN(Cc2ccco2)CC1,17,-2.94
COc1ccc(N2CCN(C(=O)c3cc4cccnc4n(Cc4ccccc4F)c3=O)CC2)cc1,-4,0.63
CN1CCC[C@@H](CNc2ccnc3ccncc23)[C@@H]1c1ccnn1C,10,-1.79
CCc1cc(NC2CCN(C[C@@H](O)CC)CC2)nc(-c2ccccn2)n1,2,-0.35
Cn1cnc2cncc(C(=O)NC3CCC(N4CCNCC4)CC3)c21 (centres undefined),-8,1.18
c1coc(-c2ncc(CN3CCCC[C@@H]3CCN3CCCC3)cn2)c1,-7,1.23
COc1cc2cc(c1OC)-c1cncc(c1)C(=O)NC1(CC1)C(=O)N[C@H](CC(C)C)C(=O)NCCNC2,-2,0.41
O=C(c1ccoc1)N1CCCN(S(=O)(=O)Cc2ccc(Cl)cc2F)CC1,3,-0.43
Cc1nccn1-c1ccc(N2CCC(N(C)CCN3CCOCC3)CC2)cc1,-5,0.79
Nc1cc(-c2ccc(C(=O)N3CCCC4(CCNCC4)CC3)cc2)ncn1,-2,0.35
CCc1c[nH]c2ncnc(N3CCC(Oc4cnccn4)CC3)c12,-10,2.03
CCOC(=O)Cc1c(CN2CCN(C)CC2)c2ccccc2n1Cc1ccccc1,-4,0.71
Cc1nc(Nc2ccc(NC(=O)Cc3noc4ccccc34)cc2)cc(N2CCCC2)n1,-6,0.98

SMILES,% Inhibition [%],Z score
CN1CCCN(c2ccc(-c3noc([C@H]4CCCOCC4)n3)cc2Cl)CC1,3,-0.56
CC1CCC(Oc2cc(CNCc3cnc(N4CCOCC4)nc3)ccn2)CC1 (centres undefined),2,-0.54
Cc1[nH]cnc1CN(CCO)C(=O)CCCc1ccccc1,-1,0.14
CCc1cc(N2CCC(NCC3(N4CCOCC4)CCCCC3)CC2)nc(C)n1,4,-0.73
COc1ccc(C(=O)COc2ccc(Cl)c3cccnc23)c(OC)c1,-17,2.64
c1ccc(-c2n[nH]cc2CNc2ccc3[nH]ncc3c2)cc1,-6,0.98
Cc1ccc2nc(C)cc(C(=O)N[C@@H](CCN(C)C)c3ccccc3)c2c1,-6,0.98
Cc1nc2c(C)cccn2c(=O)c1CCN1CCCc2c(c3ccccc3n2Cc2ccccc2)C1,2,-0.4
CCC1CN(c2nnnn2Cc2ccc(C(N)=O)cc2)CC(CC)O1 (centres undefined),-4,0.67
O=C1C[C@H](CNc2ccc(-c3nc(C4CC4)no3)cn2)CN1C1CCCC1,-15,2.58
COc1ccc(CNCCNc2ccc3ccccc3n2)cc1OC,-6,1.3
CN1CCN(c2ccc(F)cc2NCc2cc(F)ccc2F)CC1,-11,2.25
COc1cccc(C(=O)N2CC[C@@](O)(c3ccccc3)C2)c1OCCCN,-6,1.11
CN(CC1CCN(CCc2ccc(Cl)cc2)CC1)C(=O)Cc1n[nH]c2ccccc12,-1,0.17
Cc1ccc(-c2cc(C(=O)N3CCCC[C@@H]3CCN3CCOCC3)[nH]n2)cc1,-11,2.32
O=C([C@H]1CC12CCNCC2)N1CCC(N2CCN(CCO)CC2)CC1,-2,0.37
CC1CCC(NC(=O)c2c(C(F)(F)F)nn(C)c2C(F)(F)F)CC1 (centres undefined),-10,1.66
CC(C)(C)n1nnc(CNc2ccc3[nH]c(-c4ccccn4)nc3c2)n1,-4,0.67
Cc1cc(F)ccc1CNc1ccc(N2CCN(C)CC2)nc1,3,-0.45
COCCn1cnnc1CN(C)C(=O)Cn1nc2ccccc2n1,-8,1.28
Cc1cc(NCCCN2CCC(C(=O)O)CC2)nc2ccccc12,-15,2.33

SMILES,% Inhibition [%],Z score
C[C@@H](CNC(=O)c1ccccc1-c1ncc(-c2ccccc2F)o1)CN1CCCCC1,0,-0.04
CC1CN(C(C)(C)CNC(=O)C2CCCN2C2CCN(CC(F)(F)F)CC2)CC(C)O1 (centres undefined),-4,0.97
O=C(Nc1ccc2c[nH]nc2c1)[C@H]1CCCN(c2ccc(-n3ccnc3)nn2)C1,2,-0.45
Cc1noc(C)c1S(=O)(=O)N1CCC[C@H](C(=O)N2CC=C(c3c[nH]c4cc(F)ccc34)CC2)C1,-10,1.69
CN1CCC(Oc2ccc(CNc3nccn4cncc34)cc2)CC1,-4,0.66
COCC(C)OCC(O)CN1CCC(c2nccc(N3CCCC3)n2)CC1 (centres undefined),1,-0.18
O=C(Nc1cnn(C2CCNCC2)c1)C1(c2cc(F)cc(F)c2)CCCC1,-4,0.68
Cc1cc(C(=O)N2CC(CO)CC(CN3CCCN(C)CC3)C2)n[nH]1 (centres undefined),-5,0.91
N#CCc1ccc(Oc2ccc(NC(=O)c3ccccc3-c3ccc(Cn4cccn4)cc3)cn2)cc1,-2,0.24
Cc1cc(C(=O)N[C@@H]2CN(C)C[C@H]2c2cncn2C)cc(NC2CC2)n1,6,-1.12
C#CCN1CCN(C(=O)CN2CCN(CC(=O)N3CCN(CC#C)CC3)[C@@H](C)C2)CC1,-6,1.2
CN1CCC(CNc2ncnc3cc[nH]c23)(c2ccccc2)CC1,0,0.02
CNc1ncc(C(=O)N[C@H](CO)Cc2c[nH]c3ccccc23)cn1,-1,0.29
Cc1nc2c(c(=O)[nH]1)CN(C(=O)COC[C@H]1CCCO1)C2,-5,1.12
c1ccc2oc([C@H]3CCCN(c4ncnc5[nH]ccc45)C3)nc2c1,-16,3.54
Cn1cccc1-c1cc(C(=O)N2CCC(c3cc(-c4ccccc4Cl)n[nH]3)CC2)n[nH]1,-6,1.39
CC(C)(C)CC(C)(C)NS(=O)(=O)c1ccc(Cl)cc1Cl,2,-0.36
Cc1cc(N2CCN(CC(=O)N3CCNCC3)C[C@H](O)C2)nc(N)n1,-7,1.35
CC1(C)CC(NC2COCC2N2CCCC2)CC(C)(C)N1 (centres undefined),-4,0.63
c1cc(-c2cnn([C@@H]3CCCCO3)c2)c2cc[nH]c2n1,0,-0.05
OC[C@H]1CCCCN1CCNCc1cccc2[nH]ccc12,-9,1.83

SMILES,% Inhibition [%],Z score
Cc1ccc2c(c1)OC(C)(C)C[C@@H]2Nc1nccc(N2CCC(O)CC2)n1,9,-1.37
CCOCCOc1cc(C)ccc1CN1C(=O)NC(C(C)CC)C1=O (centres undefined),2,-0.29
OCC1CCN(CC2CN(Cc3cccc(-c4ccco4)c3)CC2CO)CC1 (centres undefined),2,-0.43
C[C@@H](CC(=O)Nc1cccc(CN2CCC(CO)CC2)c1)N1CCCCC1=O,-10,2.09
COc1ccccc1N1CCC(NC(c2cccs2)[C@H]2C[C@@H](O)C2)CC1 (some centres undefined),4,-0.78
CCn1ncc(CNS(=O)(=O)N2CCCC2)c1C,-9,1.99
Cn1ccnc1NC(=O)c1cccc(CN2CCN(C3CCOCC3)CC2)c1,3,-0.57
O=C(CNC1CCN(Cc2ccccc2)CC1CO)Nc1ccc(N2CCCC2)cc1 (centres undefined),-8,1.3
OCCN1CCC(Nc2nccc3ccccc23)CC1,3,-0.53
c1ccc2nc(-c3cnc4ccccc4c3-c3c[nH]c4ccccc34)ccc2c1,-11,1.82
CCOc1cccc2cc([C@H](C)NC(=O)NCc3c(C)nn(CC)c3C)oc12,-5,0.82
CN1C(=O)CC[C@@H]1C(=O)N(Cc1cscn1)c1ccccc1,2,-0.28
Cn1nccc1-n1nc(-c2c[nH]c3ccccc23)nc1CN1CCCCCC1,0,0.05
c1ccc2c(N3CCN(Cc4cc5n(n4)CCCNC5)CC3)nsc2c1,-9,1.94
COc1cc(NCC[C@H]2CCCN2C)ncn1,-2,0.26
FC(F)(F)C1CCCC(NC2CCN(CC3CCOC3)CC2)C1 (centres undefined),-5,1.15
Fc1cccnc1N1CCC(NC2CCN(Cc3ccccc3)C2)C1 (centres undefined),-10,1.84
CC(C)(C)OC(=O)[C@@H]1CCCN1C(=O)Nc1ccc(-n2cnc3ccccc32)nc1,-15,2.7
COCc1nc(C)cc(N(CCC#N)CC2CCC2)n1,-3,0.49
